Measured values as given in paper PMC4336329 (PLoS ONE, 2015).
Screen size: about 310,000 compounds; about 2,200 (0.71%) showed an effect of 50% or more. Effects have a minus sign here. The list shows a part of the results.

Molecular target: human ether-à-go-go-related gene (hERG) potassium channel (human, UniProt Q12809)
Assay: primary screen, population patch clamp on CHO cells stably expressing hERG

Sequence of human ether-à-go-go-related gene (hERG) potassium channel (Q12809 whole entry, looked up): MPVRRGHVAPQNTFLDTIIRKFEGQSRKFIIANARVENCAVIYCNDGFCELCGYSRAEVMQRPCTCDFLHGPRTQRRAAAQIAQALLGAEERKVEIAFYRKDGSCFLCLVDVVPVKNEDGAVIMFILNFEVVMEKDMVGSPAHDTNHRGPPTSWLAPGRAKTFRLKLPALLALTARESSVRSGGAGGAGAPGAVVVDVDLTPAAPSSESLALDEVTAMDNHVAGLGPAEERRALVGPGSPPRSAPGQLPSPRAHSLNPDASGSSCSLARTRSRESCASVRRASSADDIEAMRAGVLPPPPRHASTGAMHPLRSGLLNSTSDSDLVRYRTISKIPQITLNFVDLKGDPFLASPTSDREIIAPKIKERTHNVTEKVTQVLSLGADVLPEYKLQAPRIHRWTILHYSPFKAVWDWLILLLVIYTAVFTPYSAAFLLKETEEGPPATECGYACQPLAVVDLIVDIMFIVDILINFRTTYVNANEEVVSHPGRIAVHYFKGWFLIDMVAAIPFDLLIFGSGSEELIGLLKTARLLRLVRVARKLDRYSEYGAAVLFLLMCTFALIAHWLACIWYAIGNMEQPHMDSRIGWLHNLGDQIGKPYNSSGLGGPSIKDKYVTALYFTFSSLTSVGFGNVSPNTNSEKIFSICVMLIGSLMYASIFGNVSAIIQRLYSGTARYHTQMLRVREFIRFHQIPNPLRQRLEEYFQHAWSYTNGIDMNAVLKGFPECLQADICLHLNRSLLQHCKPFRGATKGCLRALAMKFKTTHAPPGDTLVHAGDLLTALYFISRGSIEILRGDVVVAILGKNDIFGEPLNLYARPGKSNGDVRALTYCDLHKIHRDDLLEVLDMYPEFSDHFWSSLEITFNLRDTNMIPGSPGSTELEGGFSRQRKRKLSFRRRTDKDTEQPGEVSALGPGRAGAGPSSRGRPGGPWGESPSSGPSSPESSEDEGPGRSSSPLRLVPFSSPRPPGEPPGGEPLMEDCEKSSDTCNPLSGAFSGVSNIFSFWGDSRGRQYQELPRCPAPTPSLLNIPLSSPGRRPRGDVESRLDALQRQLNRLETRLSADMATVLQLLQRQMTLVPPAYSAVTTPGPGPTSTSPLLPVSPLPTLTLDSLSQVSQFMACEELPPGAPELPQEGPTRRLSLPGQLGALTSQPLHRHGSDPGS

Row | Structure (SMILES) | hERG current change (%, negative = inhibition) at 1uM
1 | CCCCCc1nc(N)c(C#N)c(-c2ccco2)c1CCCC | 10.5%
2 | O=S(=O)(NC1CCCCCCC1)c1cccs1 | -18.3%
3 | O=C(O)CCCC(=O)OCc1c(-c2ccccc2)ncc2ccccc12 | 9.82%
4 | Cn1c(N2CCN(c3ccccn3)CC2)nc2c1c(=O)n(Cc1ccc(Cl)cc1)c(=O)n2C | 5.88%
5 | CCc1ccc(Nc2n[n+](-c3ccccc3)c(-c3cc(OC)c(OC)cc3Br)s2)cc1.[Cl-] | -0.471%
6 | Cc1ccnc(NS(=O)(=O)c2cc(C(F)(F)F)ccc2Cl)c1 | 8.03%
7 | CN(C)c1ccc(C(C[N+](=O)[O-])c2c(N)n(C)c(=O)n(C)c2=O)c(F)c1C#N (stereo not drawn) | 13.1%
8 | CCOC(=O)N1CCN(c2cc(=O)n(C)c(=O)n2C)CC1 | 16.3%
9 | COc1ccc(CCn2c(N)c(C#N)c3nc4ccccc4nc32)cc1OC | 14%
10 | COc1nc(-c2ccccc2)ccc1-c1noc(-c2ccco2)n1 | -3.78%
11 | CCOC(=O)N1CCN(Cc2nc3cc(NC(=O)CC(C)C)ccc3n2CC)CC1 | 5.23%
12 | CN1CCCN(C(=O)c2ccccc2Cl)CC1 | 5.08%
13 | CCOC(=O)c1ccc(NC(=O)CSc2nc(C)nc3c2c(=O)n(C)c(=O)n3C)cc1 | -14.2%
14 | N#Cc1cnn(CC2CCCCC2)c1N | 7.07%
15 | O=C(CN(c1ccccc1)S(=O)(=O)c1ccccc1)N/N=C/c1ccco1 | -1.61%
16 | Cc1cc(C(F)(F)F)c(C#N)c(SCC(=O)NC2CC2)n1 | 2.36%
17 | CCCCN(CC)Cc1c(O)ccc2c(-c3ccccc3)cc(=O)oc12 | 4.93%
18 | CC1(C)OC1COc1c2occc2cc2ccc(=O)oc12 (stereo not drawn) | 13.6%
19 | Cc1ccc2c(c1)N(CC(=O)NC1CCCC(C)C1C)C(=O)c1cccnc1O2 (stereo not drawn) | 6.52%
20 | COc1ccc(C(=O)NCC(C)NC(=O)c2ccc(OC)c(Br)c2)cc1Br (stereo not drawn) | -6.01%
21 | CCCc1nc2ccccc2c(C(=O)OC2CCOC2=O)c1CC (stereo not drawn) | 1.89%
22 | CCOc1ccc(NC(=O)CN(C)C(=O)CC(NC(=O)c2ccccc2)c2ccccc2)cc1OCC (stereo not drawn) | -3.2%
23 | CCOC(=O)C1CCCN(C(=O)c2ccc3c(c2)N(C)C(=O)/C(=C/c2ccccc2Cl)S3)C1 (stereo not drawn) | 4.44%
24 | COC(=O)CSc1nc(-c2ccc(F)cc2)cc(C(F)(F)F)n1 | 15%
